{
  "source": "PubChem BioAssay AID1345082",
  "about": "(National Center for Advancing Translational Sciences (NCATS), 2018)",
  "note": "Screen size: about 94,000 compounds; about 4,000 (4.3%) were called active. Inconclusive results, whose numbers are uncertain, are shown with a selection of clear calls. Calls follow the shape of the dose curve; as a rule, active = well fitted inhibition curve with a large enough effect; inconclusive = small, poorly fitted or top-dose-only effect; inactive = no such curve, though single readings can be large or run the other way. Where the call is inconclusive, the potency comes from a doubtful curve fit. Potency is read from the fitted curve at half-maximal effect; tags tell the direction and shape of the fitted curve.",
  "data": [
    {"test": "Cytotoxic Profiling in NIH 3T3 Cell Line of Diverse Libraries Using Quantitative High-Throughput Screening; also: nearly all actives have a fitted effect of over 55% in size", "details": "NIH 3T3 viability, CellTiter-Glo ATP luminescence, 48-72 h; series mostly up to 96.7 µM", "procedure,_shortened": "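First NIH 3T3 cells are plated at 400 cells/well; next compound is pinned in; then plates incubate 48 or 72 hr at 37 °C; finally CellTiter-Glo is added and luminescence read after 10 min.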", "values": [
      {"smiles": "COC(=O)c1cccc(COC[C@@H]2CN(C(C)C)[S+](=O)([O-])[C@H]2c2ccccc2)c1", "Potency": "inconclusive: 50.1 µM [inhibitor, single point]"},
      {"smiles": "OCCC1CN(c2nc(-c3ccccc3)nc3c2CCC3)CCN1C1CCCC1", "note": "(stereo unspecified)", "Potency": "inconclusive: 56.2 µM [inhibitor, partial curve, poor fit]"},
      {"smiles": "O=C(c1ccc(-c2ncc3cnc(C4=CCOCC4)cn23)cc1)N1CCc2ccccc2C1", "Potency": "inconclusive: 56.2 µM [inhibitor, partial curve, poor fit]"},
      {"smiles": "CC(=O)N1CC2(CCCN(Cc3ccccn3)C2)Cc2ccccc21", "note": "(stereo unspecified)", "Potency": "inactive"},
      {"smiles": "Cc1noc2c(NCC3CCOCC3)cc(-c3ccc(Cl)cc3)nc12", "Potency": "inconclusive: 8.91 µM [inhibitor, full curve, poor fit]"},
      {"smiles": "Cc1ccc(CN2CCCC3(CCC(=O)N(CCc4cnc[nH]4)C3)C2)s1", "note": "(stereo unspecified)", "Potency": "inactive"},
      {"smiles": "COCC(=O)N1CCC(CCOc2ccc(C)cc2)C1", "note": "(stereo unspecified)", "Potency": "inactive"},
      {"smiles": "NC(=O)c1cc(-c2cc(NCc3cccnc3)nc3[nH]ccc23)ccc1F", "Potency": "inconclusive: 39.8 µM [inhibitor, partial curve, poor fit]"},
      {"smiles": "COc1cccc(NC(=O)Cn2c(C)cc3nc4n(c(=O)c32)CCCC4)c1", "Potency": "inactive"},
      {"smiles": "OCCn1nc(-c2ccncc2)nc1CC12CC3CC(CC(O)(C3)C1)C2", "Potency": "inactive"},
      {"smiles": "Cn1ncc2c(C(=O)N3CCN(Cc4ccccc4)CC3)cc(-c3ccc(Cl)cc3)nc21", "Potency": "inconclusive: 50.1 µM [inhibitor, partial curve, poor fit]"},
      {"smiles": "Cc1cc(CNC(=O)CC2C=CS(=O)(=O)C2)c2[nH]c(-c3ccccc3)c(C)c2c1", "note": "(stereo unspecified)", "Potency": "active: 39.8 µM"},
      {"smiles": "Cc1cccc(C(=O)Nc2cccc(-c3ccc(N4CCN(C)CC4)nn3)c2)c1", "Potency": "active: 39.8 µM"},
      {"smiles": "COc1cccc(-n2cc(CN(C)c3ncncn3)cn2)c1", "Potency": "inactive"},
      {"smiles": "CCN1c2cc(C(=O)NCc3cc(F)cc(F)c3)ccc2C(=O)N2CCCCCC21", "note": "(stereo unspecified)", "Potency": "inconclusive: 56.2 µM [inhibitor, partial curve, poor fit]"},
      {"smiles": "O=C(c1nnc(CNc2ccccc2)n1-c1ccccc1)N1CCC[C@@H]1C(c1ccccc1)c1ccccc1", "Potency": "inconclusive: 22.4 µM [inhibitor, full curve, poor fit]"},
      {"smiles": "Cc1cccc(CN2CCCC3(CCN(C(=O)CCc4ccccc4C)C3)C2)c1", "note": "(stereo unspecified)", "Potency": "inconclusive: 89.1 µM [inhibitor, single point]"},
      {"smiles": "O=S(=O)(Cc1ccccc1)N[C@H]1CO[C@H]2[C@@H]1OC[C@@H]2n1cc(-c2ccccn2)nn1", "Potency": "inconclusive: 79.4 µM [inhibitor, partial curve, poor fit]"},
      {"smiles": "Cc1cc(C)n(CCC(=O)N2c3ccccc3CC2c2noc(C3CCOCC3)n2)n1", "note": "(stereo unspecified)", "Potency": "inconclusive: 56.2 µM [inhibitor, partial curve, poor fit]"},
      {"smiles": "Cn1ccc2c(C(=O)NCc3cccnc3)nc(-c3ccccc3)cc21", "Potency": "inconclusive: 56.2 µM [inhibitor, partial curve, poor fit]"},
      {"smiles": "O=C(NC1CCN(c2ccc3nnc(C4CC4)n3n2)C1)C1CCCC1", "note": "(stereo unspecified)", "Potency": "inactive"},
      {"smiles": "CN(C)CCNC(=O)c1nc2nc(-c3ccccc3)c(-c3cccnc3)cc2n1C", "Potency": "inconclusive: 89.1 µM [inhibitor, partial curve, poor fit]"},
      {"smiles": "COc1ccc(C2=NOC3(CCN(Cc4cccn4C)C3)C2)cc1", "note": "(stereo unspecified)", "Potency": "inconclusive: 56.2 µM [inhibitor, partial curve, poor fit]"},
      {"smiles": "CC(C)(C)NC(=O)N1CCCN(C(=O)C2CC2)C(c2ccccc2)CC(=O)NCC1", "note": "(stereo unspecified)", "Potency": "inactive"},
      {"smiles": "COc1cc(OC)c(NC(=O)Cn2ccn3nc(-c4ccccc4)c(CO)c3c2=O)cc1Cl", "Potency": "inconclusive: 39.8 µM [inhibitor, partial curve, poor fit]"},
      {"smiles": "CC(C)NC(=O)C[C@@H]1C[C@H]2O[C@H](CNC3CCC3)[C@@H](O)[C@H]2O1", "Potency": "inactive"},
      {"smiles": "O=C1NCCN2CC3(CCN(C(=O)CCCc4ccccc4)CC3)CC12", "note": "(stereo unspecified)", "Potency": "inactive"},
      {"smiles": "Cc1nc2c(OCC(=O)OC(C)(C)C)cccn2c(=O)c1-c1cc(C)n(-c2ccc(Cl)cc2)n1", "Potency": "inconclusive: 50.1 µM [inhibitor, partial curve, poor fit]"},
      {"smiles": "O=[S+]1([O-])c2cnccc2OC(Cn2cccc2)CN1Cc1cccc(F)c1", "note": "(stereo unspecified)", "Potency": "inactive"},
      {"smiles": "CN(C)C(=O)c1ccc(N2CCC(NCCC3=CC[C@H]4C[C@@H]3C4(C)C)CC2)cc1", "Potency": "inconclusive: 50.1 µM [inhibitor, single point]"},
      {"smiles": "Cc1ccc2nc(CO[C@H]3CN(Cc4ccc(S(C)(=O)=O)cc4)C[C@H]3F)[nH]c2c1", "Potency": "inconclusive: 56.2 µM [inhibitor, partial curve, poor fit]"},
      {"smiles": "O=C(c1ccccn1)N1CCC(c2cc(-c3ccccc3)n[nH]2)CC1", "Potency": "inactive"},
      {"smiles": "COCC(=O)N1CCC2(CC1)OC(=O)N(CCOc1ccccc1)C2(C)c1cccnc1", "note": "(stereo unspecified)", "Potency": "active: 50.1 µM"},
      {"smiles": "COc1ccc(-c2ccc3ncc(Nc4cc(F)cc(N5CCOCC5)c4)n3n2)cc1OC", "Potency": "active: 17.8 µM"},
      {"smiles": "CN(C)CCCNC(=O)c1cc2c(n1C)CCN(Cc1ccc(F)cc1)C2", "Potency": "inconclusive: 50.1 µM [inhibitor, single point]"},
      {"smiles": "CC(C)C(=O)NC1CCN(C(=O)c2ccc(-c3ncccc3C#N)cc2)CC1", "Potency": "inconclusive: 39.8 µM [inhibitor, partial curve, poor fit]"},
      {"smiles": "O=C(NC1CCN(C(=O)c2ccc(-c3cccs3)cc2)CC1)c1ccncc1", "Potency": "inconclusive: 50.1 µM [inhibitor, partial curve, poor fit]"},
      {"smiles": "CN1CCN(C(=O)c2cc3n(n2)CC(c2ccc(Br)cc2)OC3)CC1", "note": "(stereo unspecified)", "Potency": "inconclusive: 44.7 µM [inhibitor, partial curve, poor fit]"},
      {"smiles": "COC(=O)c1cccc(NC(=O)C2CCc3sc(C(=O)N4CCOCC4)cc3C2)c1", "note": "(stereo unspecified)", "Potency": "inconclusive: 50.1 µM [inhibitor, partial curve, poor fit]"},
      {"smiles": "O=C1NCCCCCCN(C(=O)Nc2ccc3c(c2)OCCO3)[C@H]2CCCC[C@@H]12", "Potency": "inactive"},
      {"smiles": "O=C(NC1CCCc2c1cnn2-c1ccc(F)cc1F)c1c(F)cccc1Cl", "note": "(stereo unspecified)", "Potency": "inconclusive: 50.1 µM [inhibitor, partial curve, poor fit]"}
    ]}
  ]
}
